Laboratory results as given in PubChem BioAssay AID493208 (National Center for Advancing Translational Sciences (NCATS), 2011).
The whole screen tested about 44,000 compounds, of which about 340 (0.77%) were called active. Inconclusive results (about 5%) are left out. Calls follow the shape of the dose curve; as a rule, active = well fitted inhibition curve with a large enough effect; inconclusive = small, poorly fitted or top-dose-only effect; inactive = flat fitted curve, though single readings scatter. Some of the results follow.

Assay: Acumen qHTS Assay for Inhibitors of the mTORC1 Signaling Pathway in MEF (Tsc2-/-, p53-/-) Cells: Sytravon;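 also: plate controls were DMSO for no effect and rapamycin for full effect; nearly all actives have a fitted effect of over 50% in size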
Settings: phospho-rpS6 immunofluorescence/PI, 24 h; series mostly up to 38.3 µM; activity change, negative = inhibition: at the top concentration
Procedure, shortened: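 Read-out: phospho-S6 Alexa-488 intensity over PI intensity per well, scored as % active cells using thresholds from rapamycin (7.5 nM) and DMSO controls. Tsc2-/-, p53-/- MEFs exposed to compound for 24 h; PI cell count recorded as viability.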

Activity change, negative = inhibition, inactive:
Cc1c(C2=CCN(S(=O)(=O)c3ccc(Cl)cc3)CC2)c2ccccc2n1CC(=O)N1CCCC1 5.17%
CCOc1ccccc1CNC(=O)C1CCN(c2nnc(C)c3c(C)n(-c4ccc(C)cc4)nc23)CC1 -12.7%
O=C(CC1(O)C(=O)N(CCc2ccccc2)c2ccc(Br)cc21)c1ccccc1 (configuration not stated) -2.55%
COc1ccc(N(Cc2nnc3n2CCCCC3)C(=O)Nc2ccc(Cl)cc2)cc1Cl -3.61%
Cc1cccc(OCC(=O)Nc2ccc(OCc3cc(=O)n4cc(C)ccc4n3)cc2)c1 -2.15%
Cc1c(Cl)cccc1NC(=O)C(C)n1nc(C)c2c(C)n(-c3ccccc3)nc2c1=O (configuration not stated) -5.16%
CC(=O)Nc1ccc(Nc2nc3ccc(Cl)cc3n3cnnc23)cc1 0.685%
CNC(=O)c1ccc(-c2nc(CN3CCc4ccccc43)c(C)o2)cc1 -12.8%
O=C1CC(c2nnc(Cc3ccc(F)cc3)o2)CN1c1ccccc1 (configuration not stated) 0.236%
Cc1cccc(NC(=O)CSc2cn(CC(=O)N3CCC(C)CC3)c3ccccc23)c1C -10.8%
Fc1ccccc1-n1ncc2c1ncn1nc(COc3ccc(Cl)cc3)nc21 1.96%
COc1ccccc1CNC(=O)c1cc(S(=O)(=O)N2CCCCCC2)cn1C -23.1%
CC(=O)c1cccc(NC(=O)Cn2c(-c3cncs3)nc3ccccc32)c1 -3.54%
Cc1cccc(N2CCN(S(=O)(=O)c3nnc(NC(=O)c4ccc(Cl)cc4)s3)CC2)c1 2.21%
COc1ccc(OC)c(NC(=O)c2ccc3nc(C(C)C)oc3c2)c1 5.07%
CC(C)(C)C(=O)NC1CC(=O)N(c2ccc3c(c2)OCCO3)C1 (configuration not stated) -0.0925%
CCc1cccc(NC(=O)c2cc(S(=O)(=O)N3CCCCCC3)cn2C)c1 3.83%
COc1ccccc1N1CCN(C(=O)c2cc3c(s2)-c2ccccc2OC3)CC1 -3.91%
CCc1ccccc1N1CC(c2nc3ccccc3n2CCCCOc2ccccc2OC)CC1=O (configuration not stated) -3.05%
Cc1noc(Cn2c(=O)c3cc4c(cc3n(CC(=O)Nc3ccc(C(C)C)cc3)c2=O)OCO4)n1 -7.13%
CC(C)NC(=O)Cc1csc2nc(-c3ccccc3)cn12 0.426%
COc1cccc(-c2cc(C(F)(F)F)n3nc(-c4ccc(C)cc4)cc3n2)c1 -8.2%
CNS(=O)(=O)c1ccc(NC(=O)c2nc3nc(C)cc(C(F)F)n3n2)cc1 6.32%
CCN(c1ccccc1)S(=O)(=O)c1ccc(NC(=O)c2cc(=O)c3c(C)cc(C)cc3o2)cc1 -0.676%
O=C1CCc2cc(S(=O)(=O)NC(C(=O)Nc3ccc(F)cc3)c3ccccc3)ccc2N1 (configuration not stated) 3.35%
Cc1nc2nc(CNC(=O)c3cccc(F)c3)nn2c(C)c1CCC(=O)Nc1ccc(F)cc1 -2.75%
CCOc1ccc(NS(=O)(=O)c2ccc3[nH]cc(C(=O)N4CCCC4)c(=O)c3c2)cc1 1.6%
COc1cc2c(cc1OC)C(COc1ccc(F)cc1)N(C(=O)C(C)C)CC2 (configuration not stated) 4.16%
O=c1n(Cc2ccccc2)nc2n1-c1ccccc1OC2 4.47%
CC(C)c1cnc2c(c1SCc1ccc([N+](=O)[O-])cc1)c(=O)n(C)c(=O)n2C 0%
COc1ccc(S(=O)(=O)N(Cc2nc(-c3ccccc3)no2)C2CCCCC2)cc1 -21.3%
Fc1ccc(Nc2nc(SCc3ccc(Cl)cc3)nc3ccccc23)cc1 -6.44%
CNC(=O)C1CCC(Cn2c(=O)c3sccc3n(CC(=O)N3CCCCC3C)c2=O)CC1 (configuration not stated) -0.233%
Cc1cccc(-c2noc(-c3cccnc3NCc3ccccc3Cl)n2)c1 0.845%
COc1cc(C2CC(=O)N(c3ccc(C)c(Cl)c3)C3=C2C(=O)OC3)cc(OC)c1OC (configuration not stated) -0.698%
O=C(CCS(=O)(=O)c1ccc(Br)s1)Nc1c(F)cccc1F -1.53%
COc1ccc(NC(=O)CCc2nc3cccnc3n2Cc2cccs2)c(OC)c1 -1.18%
CCOC(=O)c1ccc(NC(=O)Nc2cccc(OCc3cc(=O)n4ccc(C)cc4n3)c2)cc1 8.9%
CCCCOc1ccc(NC(=O)CSc2ccc(C(=O)O)cn2)cc1 -4.1%
Cc1cc(N2CCN(c3ccccc3F)CC2)n2cnnc2n1 0.8%
CCCSc1ncc(Cl)c(C(=O)Nc2ccc(OC)cc2OC)n1 -2.64%
COc1cccc(CNC(=O)CCn2ccc3cc(S(=O)(=O)N4CCCC4)ccc32)c1 -0.0429%
CC(C)CCSc1nc2c(c(=O)n(C)c(=O)n2C)n1Cc1ccccc1Cl 1.73%
COc1ccc(NC(=O)Nc2nnc(SCC(=O)Nc3cccc(C)c3C)s2)cc1 -0.511%
CCn1cnc2c(=O)oc3ccc(S(=O)(=O)N4CCN(c5cc(C)ccc5C)CC4)cc3c21 2.4%
COc1ccc(C2=C(C)C(=O)N(Cc3ccc(C(=O)NCc4ccccc4C)cc3)S2(=O)=O)cc1 -11.2%
O=S(=O)(NCCc1ccc(Cl)cc1)c1ccc(N2CCCCS2(=O)=O)cc1 10.7%
Cc1ccc(C2C=C(c3ccc(Cl)cc3)Nc3nc(NC(=O)CCC(=O)O)nn32)cc1 (configuration not stated) -11.7%
CCOc1ccc(NC(=O)CCn2c(-c3ccc(F)cc3)cc(C(C)=O)c2C)cc1 0.877%
O=C(CSc1nnc(-c2ccccc2)c(-c2ccccc2)n1)Nc1ccccc1Cl 3.52%
CCCOc1ccc(C(=O)Nc2cc3nn(-c4ccc(CC)cc4)nc3cc2C)cc1 -1.03%
COc1ccccc1OCCCn1c(-c2ccc(Cl)cc2)nc2ccccc2c1=O 6.95%
CCC(C)Cn1c(COc2ccc(OC)cc2)nc2ccccc21 (configuration not stated) -6.14%
CCOC(=O)Cc1c(C)nc2c(-c3ccc(OC)c(OC)c3)c(C)nn2c1C 7.41%
COc1ccc(-c2cc(C(=O)Nc3ccc(C#N)cc3)no2)cc1 -12.7%
CCOC(=O)CC(NC(=O)c1cc2cc(OC)ccc2oc1=O)c1ccc(OC)cc1 (configuration not stated) 2.33%
Cc1cccc(C(=O)Nc2nnc(S(=O)(=O)N3CCC(C)CC3)s2)c1 9.38%
O=C(CCC(=O)N1CC2CCCN2c2ccccc21)NCc1ccccc1F (configuration not stated) -2.66%
Cc1cccc(OCC(=O)OCc2cc(=O)n3nc(C4CC4)sc3n2)c1 -5.25%
O=C(C1CCN(S(=O)(=O)c2cccc3nonc23)CC1)N1CCN(c2ccc(F)cc2)CC1 -6.67%
CCOc1ccc(CNC(=O)CCS(=O)(=O)c2cc3c4c(c2)CCN4C(=O)CC3)cc1 5.23%
CCOC(=O)c1c(C)oc2ncnc(Nc3ccc(CC)cc3)c12 5.9%
